According to article PMC4336329 (PLoS ONE, 2015):
The whole screen tested about 310,000 compounds, of which about 2,200 (0.71%) showed an effect of 50% or more. The effect is printed as a negative number. Some of the results follow.

The compounds below were run against human ether-à-go-go-related gene (hERG) potassium channel (human, UniProt Q12809) (assay: primary screen, population patch clamp on CHO cells stably expressing hERG).
Chain of human ether-à-go-go-related gene (hERG) potassium channel (Q12809 whole entry, looked up): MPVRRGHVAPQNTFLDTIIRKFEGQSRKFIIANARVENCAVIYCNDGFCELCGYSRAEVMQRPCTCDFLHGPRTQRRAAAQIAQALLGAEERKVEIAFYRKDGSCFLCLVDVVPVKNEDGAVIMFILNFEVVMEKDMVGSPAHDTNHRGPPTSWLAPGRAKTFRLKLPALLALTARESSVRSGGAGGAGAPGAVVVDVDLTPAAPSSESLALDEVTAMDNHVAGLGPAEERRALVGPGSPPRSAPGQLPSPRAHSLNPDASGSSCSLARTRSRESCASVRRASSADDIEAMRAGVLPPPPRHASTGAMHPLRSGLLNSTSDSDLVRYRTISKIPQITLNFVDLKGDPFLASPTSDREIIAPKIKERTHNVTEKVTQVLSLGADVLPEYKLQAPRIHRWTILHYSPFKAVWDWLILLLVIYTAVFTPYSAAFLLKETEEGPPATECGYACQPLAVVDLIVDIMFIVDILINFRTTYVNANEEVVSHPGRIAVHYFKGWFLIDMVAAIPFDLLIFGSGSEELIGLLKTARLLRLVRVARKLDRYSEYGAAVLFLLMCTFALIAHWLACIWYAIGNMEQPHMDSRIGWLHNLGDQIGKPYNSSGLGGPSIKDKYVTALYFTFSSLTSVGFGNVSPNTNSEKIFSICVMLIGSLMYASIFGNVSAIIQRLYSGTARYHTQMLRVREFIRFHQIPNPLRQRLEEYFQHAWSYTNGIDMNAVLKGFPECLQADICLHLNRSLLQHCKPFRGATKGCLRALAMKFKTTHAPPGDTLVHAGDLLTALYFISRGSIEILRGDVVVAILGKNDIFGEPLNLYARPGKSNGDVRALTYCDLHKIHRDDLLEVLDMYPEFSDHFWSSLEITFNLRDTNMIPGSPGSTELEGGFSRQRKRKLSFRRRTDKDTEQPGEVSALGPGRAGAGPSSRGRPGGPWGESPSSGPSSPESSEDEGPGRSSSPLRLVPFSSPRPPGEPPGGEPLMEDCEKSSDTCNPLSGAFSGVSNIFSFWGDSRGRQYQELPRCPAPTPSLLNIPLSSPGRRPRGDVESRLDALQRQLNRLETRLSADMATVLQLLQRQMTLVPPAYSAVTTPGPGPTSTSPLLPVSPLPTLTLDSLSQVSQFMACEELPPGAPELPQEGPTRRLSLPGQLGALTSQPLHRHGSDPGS

Structure (SMILES) | hERG current change (%, negative = inhibition) at 1uM [%]
CCCCN(Cc1cc2cc(OC)ccc2[nH]c1=O)S(=O)(=O)c1ccc(C)cc1 | 7.56
Cc1ccc2c(c1)sc1nc(=O)ccn12 | 2.41
CC(C)NS(=O)(=O)c1ccc(NC(=O)Cc2ccsc2)cc1 | 14.5
O=C(CCc1ccc(Oc2cc([N+](=O)[O-])cc([N+](=O)[O-])c2)cc1)N1CCCCCC1 | 5.42
CC(NC(=O)CSc1nc(=O)cc(N)n1CCc1ccccc1)c1ccccc1 (centres unmarked) | -2.29
Cc1nc(Nc2ccc(Cl)cc2)c2nnn(Cc3ccccc3)c2n1 | 14.1
O=C(CNS(=O)(=O)c1ccc(F)cc1)Nc1ccc(C(F)(F)F)cc1 | 9.35
O=C(COc1cccc(C(F)(F)F)c1)Nc1ccccc1N1CCCCC1 | 7.09
COc1cccc(CN2CC(C(=O)NCCOc3cccnc3)CCC2=O)c1 (centres unmarked) | 18.2
COc1ccc(S(=O)(=O)N2CCC(C(=O)NCc3cccc(OC)c3)CC2)cc1 | 6.95
CCOc1cc(NC(=S)NCCCN2CCOCC2)c(OCC)cc1NC(=O)c1ccc(OC)cc1 | 11.9
CCOc1ccc(N2C(=O)CN(O)C=C3N=c4ccccc4=C32)cc1 | 5.94
CC1CCCN(CCC(=O)c2ccc(Br)cc2)C1.Cl (centres unmarked) | -32.1
CCN(CC)CCNC(=O)C1CCCCN1S(=O)(=O)c1cccc([N+](=O)[O-])c1 (centres unmarked) | 0.0258
Cc1nc2ccc(NC(=O)c3ccc([N+](=O)[O-])cc3)cc2[nH]1 | 12.5
O=c1nc(N2CCOCC2)nc(N/N=C/c2ccc3c(c2)OCO3)[nH]1 | 8.84
CCOC(=O)/C=C/C(=O)N1CCN(C(=O)/C=C/C(=O)OCC)CC1 | 6.99
CCOC(=O)CNC(=S)n1cnc(N)n1 | 12.2
N#Cc1cc([N+](=O)[O-])ccc1Oc1ccc(-c2nnco2)cc1 | 10.5
O=C(C/C=N/OCc1ccc(Cl)cc1)c1cnc(-c2ccccc2)s1 | 18
CN(C)CCCN(C(=O)c1ccc(S(=O)(=O)N2CCc3ccccc3C2)cc1)c1nc2c(F)cccc2s1.Cl | 6.05
Cc1ccc2nc(Cc3ccc(N)cc3)oc2c1 | 8.08

Structure (SMILES) | hERG current change (%, negative = inhibition) at 1uM [%]
Cc1ccc2cc(CN(Cc3ccco3)C(=O)NCc3ccccc3)c(=O)[nH]c2c1C | 5.12
COc1ccc(-c2nnc(SCc3ccccc3F)o2)cc1 | 6.32
C/C(N)=C(/C#N)C(=O)COC(=O)C1CCC(C(C)(C)C)CC1 (centres unmarked) | 6.53
COc1ccc(NC(=O)c2ccccc2Sc2ccc(NC(C)=O)nc2)cc1 | 11.1
Cc1c(C(C)C)c(=O)n(-c2ccc(S(=O)(=O)NCc3ccccc3)cc2)n1C | 3.67
CS(=O)(=O)Nc1ccc(Cc2noc(-c3ccc4[nH]cc(CCN)c4c3)n2)cc1.O | 18.4
CCN(CC(=O)N1CCOCC1)S(=O)(=O)c1ccc(F)cc1 | 3.25
CSc1nc(-c2cccs2)c(C#N)c(=O)[nH]1 | 6.78
CCOc1cc(/C=C(\C#N)C(=O)Nc2ccc(S(N)(=O)=O)cc2)ccc1OCCN1CCOCC1 | 7.27
O=C(O)c1cc2c(=O)c3ccccc3oc2nc1C(F)(F)F | 11.8
CS(=O)(=O)N(CCc1ccccc1)CC(=O)Nc1ccccc1 | 13.3
CCC1(CC)Nc2ccccc2C(=O)N1c1ccc(OC)cc1 | 14.4
O=C(CC1C(=O)NCCN1Cc1ccccc1)NC1CCCCCC1 (centres unmarked) | 1.67
Cc1cccc(NC(=O)CSc2nnc(-c3ccco3)n2CC2CCCO2)n1 (centres unmarked) | -0.807
O=C(Nc1ccccc1)NC1CCN(Cc2c(F)cccc2Cl)CC1 | 22.3
COc1cc2c(cc1OC)C(c1cccc(C)c1)CC(=O)N2 (centres unmarked) | 2.01
O=C(Cc1ccc(S(=O)(=O)N2CCCC2)s1)N1CCN(c2ccc(F)cc2)CC1 | -6.63
CCC1Sc2ccccc2N(CC(=O)NCc2ccc3c(c2)OCO3)C1=O (centres unmarked) | 2.97
COc1cccc(C(=O)Nc2ccc(S(=O)(=O)Nc3cc(C)nc(C)n3)cc2)c1 | 3.65
CC(C)CN1C=C2C(=O)C(C)(OC(=O)CCc3ccccc3)C(=O)C=C2C=C1c1ccc(C#N)cc1 (centres unmarked) | 7.93
Cc1ccc(C)c(SCC(=O)NC(=O)NCc2ccccc2)c1 | 6.13
CCc1noc(C)c1C(=O)OCC(=O)N1CCc2ccccc21 | 0.156

Structure (SMILES) | hERG current change (%, negative = inhibition) at 1uM [%]
COc1ccc(CCC(C)N2CCc3ccccc3C2)cc1 (centres unmarked) | -34.6
COc1cc(/C=C/C(=O)NC(C)C2CC3CCC2C3)cc(OC)c1OC (centres unmarked) | 11.8
COC(=O)c1ccc(NC(=O)C2C3C=CC(O3)C2C(=O)O)cc1 (centres unmarked) | 13.7
CCOC(=O)C1=C(C)Nc2nc(SCC)nn2C1c1ccc(OC)cc1 (centres unmarked) | 16.1
O=C(CN1C(=O)CC(c2ccccc2)=Nc2ccccc21)NC1CCCCC1 | 1.91
O=C(O)Cn1c(O)c(C2=c3ccccc3=NC2=O)sc1=O | 4.45
Cc1ccc(C)c(N2N=C(C(=O)Nc3ccc(S(=O)(=O)N4CCCC4)cc3)CCC2=O)c1 | 3.72
O=C(C1=C[C@H](c2coc3ccccc3c2=O)C[C@H](OCCCCO)O1)N1CCOCC1 | 9.03
N#Cc1c(/N=C/c2cccs2)sc2c1CCC2 | 6.41
COC(=O)C1=C(C)N(C)C(=O)/C1=C\c1cccs1 | 12.6
CCN(CC(=O)Nc1ccccc1Br)Cc1nc2ccccc2c(=O)[nH]1 | 9.66
CCOC(=O)c1c(-c2ccccc2)csc1NC(=O)c1cccc(N2C(=O)CCC2=O)c1 | 6.87
CN(C)C(=O)Oc1cc(OC(=O)N(C)C)cc(C(O)CNC(C)(C)C)c1.Cl (centres unmarked) | 9
COc1ccc(C(CNc2ncnc3sc(C)c(C)c23)N(C)C)cc1 (centres unmarked) | -19.9
COc1ccc(C(=O)Oc2ccc(/C=N/O)cc2)cc1 | 5.68
COc1cc(CNC(=O)c2cccc(COc3ccc(Cl)cc3)c2)cc(OC)c1 | 14.9
CCOC(=O)C1=C(N)OC2=C(C(=O)CCC2)C1c1ccc(C)s1 (centres unmarked) | -29.6
COC(=O)CCCC(=O)Nc1ccc(Cl)c(Cl)c1 | 10.1
COc1ccc(C(=O)Cn2c(Br)nc3c2c(=O)n(C)c(=O)n3C)cc1 | -5.07
O=C(Nc1c(F)cccc1F)c1ccc2c(c1)CCN2S(=O)(=O)c1ccccc1 | 13.5
O=C(CN1CCCCCC1)Nc1ccccc1Oc1ccccc1 | 8.69
Cc1cc(C)n2cc(CSc3nc4ccccc4[nH]3)nc2n1 | 6.59

Structure (SMILES) | hERG current change (%, negative = inhibition) at 1uM [%]
Fc1ccc(N=C2NN=C(c3cc(F)ccc3F)CS2)cc1 | -4.22
Cn1cnnc1Sc1ccc(/C=C(\CC(=O)O)c2nc3ccccc3s2)cc1[N+](=O)[O-] | 9.35
Cc1c(C(=O)Nc2ccc(Cl)cc2)c2ccccn2c1C(=O)c1ccc(F)cc1 | 11.4
Cc1cc(C)c[n+](-c2nc([O-])sc2C=O)c1 | 9.87
Cc1ccc(C2C=NN(c3ccccc3)C2=O)cc1 (centres unmarked) | 14.8
COc1ccc2nc(Cl)c(/C=N/Nc3ccccn3)cc2c1 | 7.79
COCCn1c(SCC(=O)NCC2CCCO2)nc2c(c1=O)SC(C)C2 (centres unmarked) | 19.7
CCC1=C(OC(=O)N(CC)CC)N2C(=O)OC(=NCC(=O)OC)[C@]2(C)[C@H]2C1=CC[C@H]1C(=O)N(CC(=O)OC)C(=O)[C@H]12 | 7.07
COC(=O)CSc1snnc1-c1ccc(Cl)c(Cl)c1 | 10.2
C=C[C@@H]1c2ccccc2N(S(=O)(=O)c2ccc(C)cc2)[C@H](c2ccc(C(F)(F)F)cc2)C1(C#N)C#N | -2.41
O=C(CC1C(=O)NCCN1CC1CCCCC1)NCc1ccc(F)cc1F (centres unmarked) | 9.55
Cc1ccc2cc3cc(C(=O)N4CCC5(CC4)OCCO5)oc3nc2c1 | 9.5
COc1ccc(O)c(/C=N/Nc2nc(C)cc(-c3ccccc3)n2)c1 | 12.7
CC(=O)c1cccc(NC(=O)CCc2nc3sc4c(c3c(=O)[nH]2)CCCC4)c1 | 4.71
CCN(Cc1ccccc1)S(=O)(=O)c1c(C)[nH]c(C)c1C(=O)N1CCCC1 | 7.88
NC(=O)c1cc(C(=O)c2cccc(Cl)c2Cl)c[nH]1 | 3.46
CCOC(=O)c1ccc(Cl)c(NC(=O)c2ccc(-c3ccccc3)cc2)c1 | 15.2
CN(C)CCCN(C(=O)C1=COCCO1)c1nc2ccc(Br)cc2s1.Cl | -25.1
O=[N+]([O-])c1cccc(-c2nnc3ccc4ccccc4n23)c1 | 6.4
O=C(/C=C/c1cccc([N+](=O)[O-])c1)Nc1ccc(NC(=O)c2cccs2)cc1 | 12.4
